Where “and” joins values, the source holds several entries; their conditions need not be identical. Identical values can stand only once. The whole screen tested about 210,000 compounds, of which about 5,900 (2.8%) were called active. Inconclusive results, whose numbers are uncertain, are shown with a selection of clear calls. Calls come from the whole dose curve; as a rule, active = well fitted activation curve with a large enough effect; inconclusive = small, poorly fitted or top-dose-only effect; inactive = no such curve, though single readings can be large or run the other way. Potencies of inconclusive entries are doubtful fits and often do not repeat.
Assay: qHTS Assay for Enhancers of SMN2 Splice Variant Expression; note: nearly all actives have a fitted effect of over 55% in size; for activity change, positive = activation: % of control where 0% means no effect
Conditions: HEK293 SMN2-luciferase splicing reporter, luminescence, 30-36 h; activity change, positive = activation: at 46.1 µM (top of the series)
In short: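 HEK293 cells carry an SMN2 minigene-luciferase reporter in which exon 7 inclusion puts luciferase in frame. Cells were seeded at 2000 cells/well, attached for 10-12 hours, then exposed to compounds for 30-36 hours at 37C before ONE-Glo luminescence.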
For O=C(CCCOc1ccccc1)N1CCN(C(=O)c2ccco2)CC1, the Potency was inconclusive: 14.1 µM [activator, partial curve, poor fit]. With COc1cc(/C=N/NC(=O)c2c(-c3ccccc3)noc2C)cc(OC)c1OC the activity change, positive = activation was inactive: 13.2% [at 1.84 µM]. For Cn1c2ccccc2c2ncn(CCCN3CCOCC3)c(=O)c21, the Potency was inconclusive: 35.5 µM [activator, partial curve, poor fit]. In the case of CC1CCN(C(=O)CSCc2ccc(Cl)cc2)CC1, the Potency is reported as inconclusive: 12.6 µM [activator, single point]. With COc1ccc2c(c1)N(C(=O)CN1C(=O)C3CCCCC3C1=O)C(C)(C)C=C2C (stereo not drawn) the Potency was inconclusive: 0.891 µM [activator, full curve, poor fit]. In the case of CC(C)c1ccc(NC(=O)c2snc3ccc(Cl)cc23)cc1, the Potency is reported as active: 14.1 µM. With c1ccc(C2(Cn3ccc4ccccc43)OCCO2)cc1 the Potency was inconclusive: 8.91 µM [activator, partial curve, poor fit]. In the case of CCOC(=O)CNC(=O)CSc1nnc(-c2ccccc2)n1Cc1ccco1, the Potency is reported as inconclusive: 1.78 µM [activator, full curve]. For CCNC(=S)N/N=C/c1cc(C)n(-c2ccc(Cl)cc2)c1C, the Potency was active: 17.8 µM. In the case of COc1ccc(CCNC(=O)CSc2nc(N)c3c(C)c(C)oc3n2)cc1OC, the Potency is reported as inconclusive: 0.0028 µM [activator, full curve]. In the case of O=C(COC(=O)C1CCC(=O)N1)Nc1ccc(Oc2ccccc2)cc1 (stereo not drawn), the Potency is reported as inconclusive: 31.6 µM [activator, single point]. With Cc1ccc(S(=O)(=O)Oc2ccc(/C=N/NC(=O)c3nn(C)cc3Cl)cc2)cc1 the Potency was “inactive”. For COc1ccccc1NC(=O)CSc1nnc2c3ccccc3n(C(C)C)c2n1, the Potency was inconclusive: 25.1 µM [activator, single point]. For Cc1cc(C)cc(N(CC(=O)NC2CCCCC2)C(=O)CCC(=O)Nc2cc(C)ccn2)c1, the Potency was inconclusive: 8.91 µM [activator, full curve, poor fit]. In the case of CCn1c(=O)cc(SCC(=O)NCc2ccco2)c2ccccc21, the Potency is reported as inconclusive: 0.0028 µM [activator, full curve, poor fit]. For CC(=O)n1cc(C2C(=O)CC(C)(C)CC2=O)c2ccccc21, the Potency was inconclusive: 12.6 µM [activator, partial curve, poor fit]. For O=C(/C=C/c1ccccc1)n1cnnc1SC/C=C/c1ccccc1, the Potency was inconclusive: 31.6 µM [activator, partial curve, poor fit]. For Cn1c(SCc2ccc(F)cc2)nnc1-c1cccs1, the Potency was inconclusive: 17.8 µM [activator, single point]. With Clc1ccc(Cn2ncc3c(NCc4ccco4)ncnc32)c(Cl)c1 the Potency was inconclusive: 1.12 µM [activator, full curve, poor fit]. For COc1ccc(C(=O)NCC(=O)OCC(=O)c2ccc3c(c2)OCCO3)cc1, the Potency was “inactive”. In the case of CCOc1cccc(C(=O)Nc2ccc3oc(-c4cccnc4)nc3c2)c1, the Potency is reported as “inactive”. In the case of O=C(c1ccco1)N1C(=O)c2cccc3cccc1c23, the Potency is reported as active: 10 µM. For Cc1cc(N=Cc2cc(Br)ccc2O)no1, the Potency was inconclusive: 7.08 µM [activator, partial curve]. With Cc1ccc(N(CC(=O)O)C2SC(=O)NC2=O)cc1 (stereo not drawn) the Potency was inconclusive: 0.0032 µM [activator, full curve, poor fit]. In the case of CN(C)c1ccc(-c2nc(N3CCNCC3)c3ccccc3n2)cc1, the Potency is reported as active: 11.2 µM. With Cc1cc(Cl)ccc1OCC(=O)N1CCCCC1 the Potency was inconclusive: 35.5 µM [activator, single point]. With COCCOC(=O)c1c(C)nc(SCC(=O)Nc2cccc3ccccc23)c(C#N)c1-c1ccco1 the Potency was “inactive”. In the case of COc1ccc(-c2nc(C#N)c(NCCc3ccccc3)o2)cc1, the Potency is reported as inconclusive: 11.2 µM [activator, partial curve]. With N#C/C(=C/c1ccc(N2CCOCC2)o1)c1nc2ccccc2[nH]1 the Potency was active: 2 µM. For O=c1[nH]c2ccccc2n1C1=CCCC1, the Potency was “inactive”. With CCNC(=O)c1ccccc1-c1nc(-c2ccccc2Cl)no1 the Potency was “inactive”. In the case of COc1ccc(NC(=O)c2noc3c2CCC3)cc1, the Potency is reported as active: 10 µM. For Cc1c(-c2ccccc2)oc2c(C(=O)OCC(=O)Nc3ccc(F)cc3)cccc2c1=O, the Potency was “inactive”. For COc1ccc2cc(CN(CC3CCCO3)S(=O)(=O)c3ccccc3)c(=O)[nH]c2c1 (stereo not drawn), the Potency was inconclusive: 0.0028 µM [activator, full curve, poor fit]. In the case of O=C(O)c1ccccc1SCc1cn2cc(Br)ccc2n1, the Potency is reported as inconclusive: 11.2 µM [activator, single point]. For O=C(CSc1ccc(-c2ccccn2)nn1)N1CCCc2ccccc21, the Potency was “inactive”. In the case of O=[N+]([O-])c1ccccc1CSc1nc2ccccc2o1, the Potency is reported as active: 20 µM. With C/C(=C\C(=O)Nc1cc(C)on1)c1ccccc1 the Potency was inconclusive: 10 µM [activator, partial curve, poor fit]. With CCS(=O)(=O)c1ccc2oc(SCC(=O)N3c4ccccc4CC3C)nc2c1 (stereo not drawn) the Potency was “inactive”. With C(=N\n1cnnc1)/c1cn(-c2cccs2)nc1-c1ccccc1 the Potency was inconclusive: 0.01 µM [activator, full curve, poor fit]. For CCOc1ccc(-c2nnn(CCC(=O)O)n2)cc1OC, the Potency was “inactive”. In the case of CCOC(=O)CNc1nc(-c2ccncc2)nc2ccccc12, the Potency is reported as inconclusive: 12.6 µM [activator, partial curve]. In the case of Cc1ccccc1-c1nnc(-c2ccc(Br)cc2)o1, the Potency is reported as inconclusive: 14.1 µM [activator, single point]. With CCCCOCCCNC(=O)CN1C(=O)c2ccccc2C1=O the Potency was “inactive”. With CC(C)(C)c1ccc(NC(=O)CSc2nnc(-c3n[nH]c4ccccc34)o2)cc1 the Potency was inconclusive: 14.1 µM [activator, single point]. In the case of CCn1nnnc1NCc1cccn1C, the Potency is reported as inconclusive: 12.6 µM [activator, partial curve, poor fit]. In the case of O=C(NCCC1=CCCCC1)C1CCN(S(=O)(=O)c2ccc(Br)s2)CC1, the Potency is reported as “inactive”. With COc1ccccc1NC(=O)Nc1nnc(C(C)C)s1 the Potency was active: 22.4 µM. With CC(=O)c1sc(NC(=O)c2cccc(C)c2)nc1C the Potency was active: 14.1 µM. With CCOC(=O)c1ccccc1NC(=O)c1ccc(N(C)S(C)(=O)=O)cc1 the Potency was inconclusive: 0.0355 µM [activator, partial curve, poor fit]. For Cc1ccc(O)c(C2=Nc3ccccc3N=C(c3cccc(F)c3)C2)c1, the Potency was inconclusive: 10 µM [activator, partial curve]. In the case of O=c1c(-c2ccc(O)cc2)coc2cc(O)ccc12, the Potency is reported as active: 15.8 µM and active: 28.2 µM and active: 12.6 µM. With O=C(N1CCOCC1)N1CCN(S(=O)(=O)N2CCOCC2)CC1 the Potency was inconclusive: 25.1 µM [activator, partial curve, poor fit]. In the case of COCC(=O)n1nc(-c2ccc(C)cc2)nc1NCc1ccc(F)cc1, the Potency is reported as inconclusive: 25.1 µM [activator, partial curve, poor fit]. In the case of c1ccc2c(C3=NNC(=NC4CCCCC4)SC3)c[nH]c2c1, the Potency is reported as active: 20 µM. For O=C(NC1CCCCCCC1)c1ccc2c(c1)OCO2, the Potency was active: 5.01 µM. In the case of Cn1c(=O)c2c3c(sc2n2c(SCC(N)=O)nnc12)CC(C(C)(C)C)CC3 (stereo not drawn), the Potency is reported as inconclusive: 7.08 µM [activator, partial curve, poor fit]. With COc1cc(C(=O)Nc2nnc(C)s2)cc(OC)c1OC the Potency was inconclusive: 20 µM [activator, single point]. With CCOC(=O)c1c(C)[nH]c(C(=O)COC(=O)CNC(=O)C2CCCCC2)c1C the Potency was inconclusive: 0.0126 µM [activator, full curve, poor fit]. With N#CC1=C(N)OC2=C(C(=O)CCC2)C1C1CC=CCC1 (stereo not drawn) the Potency was inconclusive: 1.12 µM [activator, full curve]. In the case of Cc1ccc(Nc2nc(N)nc(-c3oc4ccccc4c3C)n2)cc1, the Potency is reported as active: 12.6 µM. In the case of O=C(NC(NCc1cccnc1)C(Cl)(Cl)Cl)c1cccc2ccccc12 (stereo not drawn), the Potency is reported as “inactive”. For COc1nc(-c2ccc(C)cc2)ccc1-c1noc(-c2ccc(C(C)(C)C)cc2)n1, the Potency was “inactive”. In the case of COC(=O)c1sc(NC(=O)c2ccoc2C)nc1C, the Potency is reported as active: 22.4 µM. With Cc1cccc(N(C(=O)C(F)(F)F)C(C(=O)NC2CCCCC2)c2cccs2)c1 (stereo not drawn) the Potency was inconclusive: 4.47 µM [activator, partial curve]. With Cc1ccc(Nc2nnc(SCC3CCCCO3)s2)cc1 (stereo not drawn) the Potency was inconclusive: 25.1 µM [activator, single point]. For CC(=O)Nc1ccc(N2CC(C)(C)C2=O)cc1, the Potency was “inactive”. For CNC(=S)N/N=C/c1cn(CCOc2cccc(OC)c2)c2ccccc12, the Potency was inconclusive: 15.8 µM [activator, partial curve, poor fit]. For CCCCN(C)CCCNC(=O)Cn1ncc2c3ccccc3n(Cc3cc(C)ccc3C)c2c1=O, the Potency was inconclusive: 0.0316 µM [activator, full curve, poor fit]. For Cc1noc(C)c1S(=O)(=O)N1CCc2nc(COc3ccccc3)c3c(c2C1)CO[C@@H](C)C3, the activity change, positive = activation was inactive: -10% [at 9.22 µM]. In the case of COc1ccc(NC(=O)c2cc3ccccc3o2)cc1, the Potency is reported as inconclusive: 20 µM [activator, single point]. With CC(C)CC(=O)Nc1ccc(-c2nnn(CC(=O)NCc3ccco3)n2)cc1 the Potency was inconclusive: 11.2 µM [activator, partial curve]. For COC(=O)c1ccccc1NC(=O)Cn1c(=O)n(-c2cccc(C(F)(F)F)c2)c(=O)c2c(C)c(C)sc21, the Potency was “inactive”.

Source: PubChem BioAssay AID1458 (National Center for Advancing Translational Sciences (NCATS), 2008)
Potency is the fitted concentration of half-maximal effect; tags give direction and shape of the fitted curve.
